Data: patent publication US20050209136A1 (LUDWIG INSTITUTE FOR CANCER RESEARCH, published 2005)

How the values were obtained:
Assay in all cases: pull-down of 35S-labelled conditioned medium with receptor-Ig on protein A-Sepharose, SDS-PAGE
VEGFR-1-Ig = molecular target: T1, VEGFR-1-Ig (human, UniProt P17948 27-758)
T1 construct: extracellular domain; Transiently expressed in 293 EBNA cells and captured on protein A-Sepharose; Construct as in Olofsson et al., 1998; also called soluble Ig-fusion protein containing the extracellular domain of human VEGFR-1; not shown: Ig part of the fusion; not described

VEGFR-2-Ig = molecular target: T2, VEGFR-2-Ig (human, UniProt P35968 20-764)
Chain of VEGFR-2-Ig (P35968 20-764): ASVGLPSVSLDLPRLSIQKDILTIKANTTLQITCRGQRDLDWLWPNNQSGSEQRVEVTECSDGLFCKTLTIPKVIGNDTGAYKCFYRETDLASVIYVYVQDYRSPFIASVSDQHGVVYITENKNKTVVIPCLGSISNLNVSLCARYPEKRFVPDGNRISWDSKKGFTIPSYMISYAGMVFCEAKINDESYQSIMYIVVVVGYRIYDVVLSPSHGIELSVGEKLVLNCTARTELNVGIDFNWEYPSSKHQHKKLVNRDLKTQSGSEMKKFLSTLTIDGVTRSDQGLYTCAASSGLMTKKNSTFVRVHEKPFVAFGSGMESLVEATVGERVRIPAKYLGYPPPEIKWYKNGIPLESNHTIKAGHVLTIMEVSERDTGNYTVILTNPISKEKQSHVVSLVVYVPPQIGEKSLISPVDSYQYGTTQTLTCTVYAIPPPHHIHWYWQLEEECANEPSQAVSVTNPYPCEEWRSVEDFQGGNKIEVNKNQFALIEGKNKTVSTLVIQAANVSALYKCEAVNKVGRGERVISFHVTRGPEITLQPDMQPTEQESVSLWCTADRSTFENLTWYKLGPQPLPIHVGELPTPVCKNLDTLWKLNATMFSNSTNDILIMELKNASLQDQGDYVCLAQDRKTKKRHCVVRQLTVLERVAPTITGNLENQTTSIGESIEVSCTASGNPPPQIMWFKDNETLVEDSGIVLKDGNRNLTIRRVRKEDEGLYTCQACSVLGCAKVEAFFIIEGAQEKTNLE
T2 construct: extracellular domain; also called soluble Ig-fusion protein containing the extracellular domain of human VEGFR-2; not shown: Ig part of the fusion; not described

VEGFR-3-Ig = molecular target: T3, VEGFR-3-Ig (human, UniProt P35916 25-775)
T3 construct: extracellular domain; Transiently expressed in 293 EBNA cells and captured on protein A-Sepharose; also called soluble Ig-fusion protein containing the extracellular domain of human VEGFR-3; not shown: Ig part of the fusion; not described
T3 sequence (looked up): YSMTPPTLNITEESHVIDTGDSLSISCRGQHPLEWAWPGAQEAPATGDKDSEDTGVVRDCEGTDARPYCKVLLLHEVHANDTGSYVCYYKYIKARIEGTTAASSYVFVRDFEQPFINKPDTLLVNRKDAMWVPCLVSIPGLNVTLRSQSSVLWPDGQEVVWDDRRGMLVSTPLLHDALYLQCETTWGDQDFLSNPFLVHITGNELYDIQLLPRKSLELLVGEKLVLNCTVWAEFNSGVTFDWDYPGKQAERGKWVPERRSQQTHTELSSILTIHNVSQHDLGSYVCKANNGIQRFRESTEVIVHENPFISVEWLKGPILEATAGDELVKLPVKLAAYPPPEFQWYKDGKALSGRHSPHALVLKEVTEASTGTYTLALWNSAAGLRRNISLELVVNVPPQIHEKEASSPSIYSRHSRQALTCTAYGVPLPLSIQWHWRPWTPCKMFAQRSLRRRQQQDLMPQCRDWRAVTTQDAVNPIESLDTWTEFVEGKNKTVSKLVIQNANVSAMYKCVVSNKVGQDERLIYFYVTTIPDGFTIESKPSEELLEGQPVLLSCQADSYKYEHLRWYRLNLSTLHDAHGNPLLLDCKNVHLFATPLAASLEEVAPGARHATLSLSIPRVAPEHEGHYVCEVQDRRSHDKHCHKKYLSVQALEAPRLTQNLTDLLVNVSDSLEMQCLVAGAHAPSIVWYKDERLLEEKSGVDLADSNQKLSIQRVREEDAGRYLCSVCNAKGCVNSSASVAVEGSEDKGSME

Chain of VEGFR-1-Ig (P17948 27-758): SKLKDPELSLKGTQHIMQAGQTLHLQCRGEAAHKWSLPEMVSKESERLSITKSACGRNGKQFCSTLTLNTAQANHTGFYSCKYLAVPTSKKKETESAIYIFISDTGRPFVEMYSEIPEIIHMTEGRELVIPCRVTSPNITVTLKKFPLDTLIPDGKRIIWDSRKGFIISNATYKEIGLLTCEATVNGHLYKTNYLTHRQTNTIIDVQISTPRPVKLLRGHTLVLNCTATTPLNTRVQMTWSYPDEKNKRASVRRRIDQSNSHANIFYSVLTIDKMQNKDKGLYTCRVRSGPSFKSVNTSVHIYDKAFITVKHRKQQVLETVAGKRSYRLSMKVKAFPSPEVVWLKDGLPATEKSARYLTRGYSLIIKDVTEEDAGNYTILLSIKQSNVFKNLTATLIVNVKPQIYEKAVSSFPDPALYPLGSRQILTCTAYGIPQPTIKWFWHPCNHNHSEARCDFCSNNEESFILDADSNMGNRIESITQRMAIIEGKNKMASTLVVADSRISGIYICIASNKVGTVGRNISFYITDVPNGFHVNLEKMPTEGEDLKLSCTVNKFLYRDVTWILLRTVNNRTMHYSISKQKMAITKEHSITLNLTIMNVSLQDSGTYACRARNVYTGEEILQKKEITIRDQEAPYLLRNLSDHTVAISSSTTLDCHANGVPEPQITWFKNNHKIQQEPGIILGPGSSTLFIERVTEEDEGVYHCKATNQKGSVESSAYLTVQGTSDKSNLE

binding result (VEGFR-1-Ig): no binding | binding result (VEGFR-2-Ig): no binding | binding result (VEGFR-3-Ig): no binding
B1: truncated PDGF-D (PDGF/VEGF homology domain expressed from pSecTag in COS cells) (ligand)
chain: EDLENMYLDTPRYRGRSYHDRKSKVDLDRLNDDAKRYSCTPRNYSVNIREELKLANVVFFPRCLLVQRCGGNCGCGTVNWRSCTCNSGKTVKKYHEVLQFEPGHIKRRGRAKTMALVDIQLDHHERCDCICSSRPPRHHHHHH
modifications: metabolically labeled with 35S-cysteine and methionine
notes: also called secreted truncated PDGF-D; radiolabeled PDGF-D; not shown: C-terminal c-myc tag derived from the pSecTag vector
